The densities may have been worked out from excess volumes.
Assay: xn = mol fraction of the nth substance listed
Conditions: 100 kPa

CC[n+]1ccn(C)c1.N#C[S-] + CCO
mass density [kg/m3]
Conditions	298.15 K	303.15 K	308.15 K
x1 = 0.0504	832.7	828.5	824.2
x1 = 0.1005	870.3	866.4	862.4
x1 = 0.2011	–	926.3	–
x1 = 0.2995	973.5	969.8	966.1
x1 = 0.3991	–	1004.1	1000.7
x1 = 0.4984	1034.4	1031.1	1027.7
x1 = 0.5989	1056.6	–	1050
x1 = 0.699	1074.8	1071.4	1068.4
x1 = 0.7966	1089.7	1086.5	1083.2
x1 = 0.8998	1103.3	1100	1096.8
x1 = 0.949	–	1105.4	1102.3
x1 = 1	1114	1110.7	1107.5

CCO + CC[n+]1ccn(C)c1.N#C[S-]
x2 = 0
Conditions	mass density [kg/m3]
298.15 K	785.6
308.15 K	776.9

Reference: a compilation of properties of binary mixtures (doi:10.1016/j.jct.2021.106489)
